Publication PMC9911399, “Two distinct binding modes provide the RNA-binding protein RbFox with extraordinary sequence specificity”
Residue numbers refer to the chain shown, from its start. The list shows a part of the results.

T1: RBFOX1 RRM RbFoxmut (Fox-RRM*) (Homo sapiens, UniProt Q9NWB1 109-208, R118D;E147R;N151S;E152T)
T1 sequence: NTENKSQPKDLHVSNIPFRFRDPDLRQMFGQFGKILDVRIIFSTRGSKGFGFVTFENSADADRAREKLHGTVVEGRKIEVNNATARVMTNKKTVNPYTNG

B1: AUUGCGG (DNA:RNA)
RNA: GGGAGACCGGAAUUCAGAUUGUCCAUUGCGGUUAAAUCCCGUCGUAGCCACCA
DNA 1: CAATCTGAATTCCGGTCTCCC
DNA 2: TGGTGGCTACGACGGGATT
B2: UGCUGUG (DNA:RNA)
RNA: B1 RNA with A25U, U26G, U27C, G28U, C29G, G30U
DNA 1: CAATCTGAATTCCGGTCTCCC
DNA 2: TGGTGGCTACGACGGGATT
B3: GGUAUUU (DNA:RNA)
RNA: B1 RNA with A25G, U26G, G28A, C29U, G30U, G31U
DNA 1: CAATCTGAATTCCGGTCTCCC
DNA 2: TGGTGGCTACGACGGGATT
B4: ACUUUAA (DNA:RNA)
RNA: B1 RNA with U26C, G28U, C29U, G30A, G31A
DNA 1: CAATCTGAATTCCGGTCTCCC
DNA 2: TGGTGGCTACGACGGGATT
B5: GGAUGCA (DNA:RNA)
RNA: GGGAGACCGGAAUUCAGAUUGUCCGGAUGCAUUAAAUCCCGUCGUAGCCACCA
DNA 1: CAATCTGAATTCCGGTCTCCC
DNA 2: TGGTGGCTACGACGGGATT
B6: CCCGGCG (DNA:RNA)
RNA: B1 RNA with A25C, U26C, U27C, C29G, G30C
DNA 1: CAATCTGAATTCCGGTCTCCC
DNA 2: TGGTGGCTACGACGGGATT
B7: AGUGCUC (DNA:RNA)
RNA: B1 RNA with U26G, G30U, G31C
DNA 1: CAATCTGAATTCCGGTCTCCC
DNA 2: TGGTGGCTACGACGGGATT
B8: GCGUGCG (DNA:RNA)
RNA: B5 RNA with G26C, A27G, A31G
DNA 1: CAATCTGAATTCCGGTCTCCC
DNA 2: TGGTGGCTACGACGGGATT
B9: UCCAGUG (DNA:RNA)
RNA: B1 RNA with A25U, U26C, U27C, G28A, C29G, G30U
DNA 1: CAATCTGAATTCCGGTCTCCC
DNA 2: TGGTGGCTACGACGGGATT
B10: UGAAGAU (DNA:RNA)
RNA: B5 RNA with G25U, U28A, C30A, A31U
DNA 1: CAATCTGAATTCCGGTCTCCC
DNA 2: TGGTGGCTACGACGGGATT
B11: UUUGUAC (DNA:RNA)
RNA: B1 RNA with A25U, C29U, G30A, G31C
DNA 1: CAATCTGAATTCCGGTCTCCC
DNA 2: TGGTGGCTACGACGGGATT
B12: UUGCCGU (DNA:RNA)
RNA: B1 RNA with A25U, U27G, G28C, G31U
DNA 1: CAATCTGAATTCCGGTCTCCC
DNA 2: TGGTGGCTACGACGGGATT
B13: AAUGAUA (DNA:RNA)
RNA: B1 RNA with U26A, C29A, G30U, G31A
DNA 1: CAATCTGAATTCCGGTCTCCC
DNA 2: TGGTGGCTACGACGGGATT
B14: GAUACGG (DNA:RNA)
RNA: B1 RNA with A25G, U26A, G28A
DNA 1: CAATCTGAATTCCGGTCTCCC
DNA 2: TGGTGGCTACGACGGGATT
B15: CCGAACG (DNA:RNA)
RNA: B1 RNA with A25C, U26C, U27G, G28A, C29A, G30C
DNA 1: CAATCTGAATTCCGGTCTCCC
DNA 2: TGGTGGCTACGACGGGATT
B16: UAAGAUG (DNA:RNA)
RNA: B1 RNA with A25U, U26A, U27A, C29A, G30U
DNA 1: CAATCTGAATTCCGGTCTCCC
DNA 2: TGGTGGCTACGACGGGATT
B17: CUUUCAC (DNA:RNA)
RNA: B1 RNA with A25C, G28U, G30A, G31C
DNA 1: CAATCTGAATTCCGGTCTCCC
DNA 2: TGGTGGCTACGACGGGATT
B18: CGCAAGG (DNA:RNA)
RNA: B1 RNA with A25C, U26G, U27C, G28A, C29A
DNA 1: CAATCTGAATTCCGGTCTCCC
DNA 2: TGGTGGCTACGACGGGATT
B19: UAUCCCG (DNA:RNA)
RNA: B1 RNA with A25U, U26A, G28C, G30C
DNA 1: CAATCTGAATTCCGGTCTCCC
DNA 2: TGGTGGCTACGACGGGATT
B20: GGAGAAC (DNA:RNA)
RNA: B5 RNA with U28G, G29A, C30A, A31C
DNA 1: CAATCTGAATTCCGGTCTCCC
DNA 2: TGGTGGCTACGACGGGATT
B21: UCCGAAA (DNA:RNA)
RNA: B1 RNA with A25U, U26C, U27C, C29A, G30A, G31A
DNA 1: CAATCTGAATTCCGGTCTCCC
DNA 2: TGGTGGCTACGACGGGATT
B22: GUUUCUC (DNA:RNA)
RNA: B1 RNA with A25G, G28U, G30U, G31C
DNA 1: CAATCTGAATTCCGGTCTCCC
DNA 2: TGGTGGCTACGACGGGATT
B23: ACGUUUU (DNA:RNA)
RNA: B1 RNA with U26C, U27G, G28U, C29U, G30U, G31U
DNA 1: CAATCTGAATTCCGGTCTCCC
DNA 2: TGGTGGCTACGACGGGATT
B24: UGCAGGA (DNA:RNA)
RNA: B5 RNA with G25U, A27C, U28A, C30G
DNA 1: CAATCTGAATTCCGGTCTCCC
DNA 2: TGGTGGCTACGACGGGATT
B25: CUGGCGU (DNA:RNA)
RNA: B1 RNA with A25C, U27G, G31U
DNA 1: CAATCTGAATTCCGGTCTCCC
DNA 2: TGGTGGCTACGACGGGATT
B26: UAUACUU (DNA:RNA)
RNA: B1 RNA with A25U, U26A, G28A, G30U, G31U
DNA 1: CAATCTGAATTCCGGTCTCCC
DNA 2: TGGTGGCTACGACGGGATT
B27: UAUGCGU (DNA:RNA)
RNA: B1 RNA with A25U, U26A, G31U
DNA 1: CAATCTGAATTCCGGTCTCCC
DNA 2: TGGTGGCTACGACGGGATT
B28: CACCUUG (DNA:RNA)
RNA: B1 RNA with A25C, U26A, U27C, G28C, C29U, G30U
DNA 1: CAATCTGAATTCCGGTCTCCC
DNA 2: TGGTGGCTACGACGGGATT
B29: UCUUAUA (DNA:RNA)
RNA: B5 RNA with G25U, G26C, A27U, G29A, C30U
DNA 1: CAATCTGAATTCCGGTCTCCC
DNA 2: TGGTGGCTACGACGGGATT
B30: ACUCUCU (DNA:RNA)
RNA: B1 RNA with U26C, G28C, C29U, G30C, G31U
DNA 1: CAATCTGAATTCCGGTCTCCC
DNA 2: TGGTGGCTACGACGGGATT
B31: GGUGAAA (DNA:RNA)
RNA: B5 RNA with A27U, U28G, G29A, C30A
DNA 1: CAATCTGAATTCCGGTCTCCC
DNA 2: TGGTGGCTACGACGGGATT

biological target: T1, RBFOX1 RRM RbFoxmut (Fox-RRM*); assay: EMSA; HiTS-Eq, 1 nM pool, 10 min; buffer printed only for the single-RNA assays: 10 mM Tris pH 7.5, 150 mM NaCl, 3.4 mM EDTA, 0.001% NP-40, 30 C; settings: tags: His6 N-terminal (pET28a); label: 5' 32P
In short: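 These values rest on relative association constants, computed from read-count changes of each RNA species versus the control reaction and normalised to the cognate motif. Reads came from free RNA recovered by 8% native PAGE after purified RbFox RRM (wild type or mutant) at increasing concentrations was equilibrated for 10 min in 50 µL with 1 nM of a 5′-radiolabelled pool with 7 randomized nucleotides and DNA-annealed flanks.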

Question: How did the binding signal turn out when B1 was run?
Answer: 0.0848 KA relative to UGCAUGU

Question: B2 was tested. Which binding signal did it give?
Answer: 0.217 KA relative to UGCAUGU

Question: Which binding signal does the source give for B3 here?
Answer: 0.104 KA relative to UGCAUGU

Question: B4 was tested. Which binding signal did it give?
Answer: 0.125 KA relative to UGCAUGU

Question: With B5 as the binder, how does the binding signal read?
Answer: 0.24 KA relative to UGCAUGU

Question: Which binding signal does the source give for B6 here?
Answer: 0.098 KA relative to UGCAUGU

Question: B7 was tested. Which binding signal did it give?
Answer: 0.094 KA relative to UGCAUGU

Question: How did the binding signal turn out when B8 was run?
Answer: 0.158 KA relative to UGCAUGU

Question: B9 was tested. Which binding signal did it give?
Answer: 0.125 KA relative to UGCAUGU

Question: With B10 as the binder, how does the binding signal read?
Answer: 0.0683 KA relative to UGCAUGU

Question: With B11 as the binder, how does the binding signal read?
Answer: 0.126 KA relative to UGCAUGU

Question: With B12 as the binder, how does the binding signal read?
Answer: 0.0995 KA relative to UGCAUGU

Question: B13 was tested. Which binding signal did it give?
Answer: 0.106 KA relative to UGCAUGU

Question: For B14, which binding signal is on record?
Answer: 0.0485 KA relative to UGCAUGU

Question: How did the binding signal turn out when B15 was run?
Answer: 0.211 KA relative to UGCAUGU

Question: Which binding signal does the source give for B16 here?
Answer: 0.0888 KA relative to UGCAUGU

Question: With B17 as the binder, how does the binding signal read?
Answer: 0.121 KA relative to UGCAUGU

Question: B18 was tested. Which binding signal did it give?
Answer: 0.0732 KA relative to UGCAUGU

Question: With B19 as the binder, how does the binding signal read?
Answer: 0.0819 KA relative to UGCAUGU

Question: B20 was tested. Which binding signal did it give?
Answer: 0.0549 KA relative to UGCAUGU

Question: How did the binding signal turn out when B21 was run?
Answer: 0.0481 KA relative to UGCAUGU

Question: For B22, which binding signal is on record?
Answer: 0.0743 KA relative to UGCAUGU

Question: With B23 as the binder, how does the binding signal read?
Answer: 0.101 KA relative to UGCAUGU

Question: How did the binding signal turn out when B24 was run?
Answer: 0.0846 KA relative to UGCAUGU

Question: Which binding signal does the source give for B25 here?
Answer: 0.135 KA relative to UGCAUGU

Question: With B26 as the binder, how does the binding signal read?
Answer: 0.0928 KA relative to UGCAUGU

Question: With B27 as the binder, how does the binding signal read?
Answer: 0.108 KA relative to UGCAUGU

Question: With B28 as the binder, how does the binding signal read?
Answer: 0.123 KA relative to UGCAUGU

Question: Which binding signal does the source give for B29 here?
Answer: 0.16 KA relative to UGCAUGU

Question: For B30, which binding signal is on record?
Answer: 0.0575 KA relative to UGCAUGU

Question: Which binding signal does the source give for B31 here?
Answer: 0.0696 KA relative to UGCAUGU
